# Assay results published in PubChem BioAssay AID1347043 (National Center for Advancing Translational Sciences (NCATS), 2019).
# Among all 76,000 compounds or so, about 1,900 (2.5%) were called active. Inconclusive results, whose numbers are uncertain, are shown with a selection of clear calls. The call rests on the fitted dose curve; in most records, active means well fitted inhibition curve with a large enough effect; inconclusive means small, poorly fitted or top-dose-only effect; inactive means flat fitted curve, though single readings scatter. Potencies of inconclusive entries are doubtful fits and often do not repeat.
# Biological target: Luciferin 4-monooxygenase (Photinus pyralis) (UniProt P08659)
# Assay: Firefly luciferase inhibition profiling of diverse chemical library using quantitative high-throughput screening; further: nearly all actives have a fitted effect of over 65% in size
# Conditions: purified P. pyralis luciferase, luminescence, biochemical; activity change, negative = inhibition: at 115 µM (top of the series) unless noted
# Summary of the method: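 Purified P. pyralis luciferase (10nM final) in 50mM Tris acetate pH 7.5, 10mM Mg acetate, 0.01% Tween-20, 0.05% BSA with 10uM D-luciferin and 10uM ATP. Compounds titrated qHTS. Luminescence imaged on CCD.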
# On the % scale 0 is the no-effect control and ±100 the full control effect; potency means the concentration at half of the fitted maximal effect; tags describe the fitted curve by direction and shape.
# Chain of UniProt P08659 (P08659 whole entry, looked up): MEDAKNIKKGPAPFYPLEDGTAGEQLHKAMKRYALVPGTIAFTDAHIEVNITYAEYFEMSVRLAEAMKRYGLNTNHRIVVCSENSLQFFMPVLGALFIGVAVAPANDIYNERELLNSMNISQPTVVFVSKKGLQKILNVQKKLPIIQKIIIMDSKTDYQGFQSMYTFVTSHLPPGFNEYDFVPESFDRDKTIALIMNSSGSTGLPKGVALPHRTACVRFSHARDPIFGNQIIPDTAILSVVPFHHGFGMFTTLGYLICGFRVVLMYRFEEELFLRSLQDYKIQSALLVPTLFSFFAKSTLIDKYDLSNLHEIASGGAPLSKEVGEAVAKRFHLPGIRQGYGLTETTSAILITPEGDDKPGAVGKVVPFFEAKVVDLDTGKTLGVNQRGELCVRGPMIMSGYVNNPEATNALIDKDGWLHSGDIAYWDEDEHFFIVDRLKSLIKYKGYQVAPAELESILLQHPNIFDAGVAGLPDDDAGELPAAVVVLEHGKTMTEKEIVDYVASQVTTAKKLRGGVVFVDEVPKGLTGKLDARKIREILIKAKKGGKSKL
Structure (SMILES),Potency,"activity change, negative = inhibition"
Cc1ccc2nc([C@H]3CCN(C(C)C)C3)[nH]c2c1,active: 7.94 µM,–
COc1cc(OC)cc(C(=O)NC2CCN(c3cc(C(F)(F)F)nc(C)n3)CC2)c1,–,inactive: 6.3%
O=C(Cc1c[nH]c2ncc(-c3ccc4c(c3)OCO4)cc12)N1CCOCC1,"inconclusive: 70.8 µM [inhibitor, partial curve, poor fit]",–
CC(=O)NC1(C)CCN(Cc2cccc(-c3cccc(Cl)c3)c2)C1 (stereo not drawn),"inconclusive: 79.4 µM [inhibitor, partial curve]",–
CN1CCCC2(C1)CN(Cc1cccnc1)c1ccc(C(=O)NCC3CCCCC3)cc12 (stereo not drawn),–,inactive: -4.58% [at 172 µM]
O=C1c2cnc(-c3ccccc3)nc2OCCN1c1cccc(C(F)(F)F)c1,"inconclusive: 22.4 µM [inhibitor, full curve]",–
Cc1ccc(C)c(NC(=O)Cn2nc3c(cc2=O)CCCCC3)c1,–,inactive: -5.33%
Cc1nn(C)c(C)c1CCN(C)C(=O)C1CCCCC(=O)N1 (stereo not drawn),–,inactive: 14.7%
O=C(CCC1CCCC1)N1CCC2(CCCCO2)CC1,"inconclusive: 44.7 µM [inhibitor, partial curve]",–
COC(=O)[C@@H]1Cc2c([nH]c3ccccc23)[C@H]2C[C@@H](NCCO)C[C@@H](c3ccccc3)N21,"inconclusive: 126 µM [inhibitor, single point]",–
CN(C)c1ccc(-c2noc([C@@H]3CCCN3CC3CCCCC3)n2)cn1,active: 35.5 µM,–
Cc1cccc(C(=O)Nc2cccc(C3OC(=O)N(Cc4ccccc4)C3C(=O)NCC(C)C)c2)c1 (stereo not drawn),"inconclusive: 44.7 µM [inhibitor, partial curve]",–
O[C@@H]1C[C@@H](c2nc(-c3ccc4c(c3)OCO4)no2)N(Cc2ccccn2)C1,active: 44.7 µM,–
CC(C)c1cccc(NC(=O)c2ccc(CN3C(=O)NC4(CCOCC4)C3=O)cc2)c1,active: 39.8 µM,–
O=C(NC1CCCCC1)C1CN(C(=O)c2cccc(C(F)(F)F)c2)CC12CCOCC2 (stereo not drawn),–,inactive: 5.42%
Cc1csc(NC(=O)c2nc3c(o2)CCN(Cc2ccc(C#N)cc2)CC3)n1,active: 22.4 µM,–
O=C(NCc1cccnc1)c1ccc2nccn2c1,–,inactive: 1.76% [at 172 µM]
CN1CCCN(S(=O)(=O)c2ccc(C(F)(F)F)cc2)c2ccccc21,–,inactive: -21.5%
Cn1cc(-c2cc(=O)c3ccnc(Nc4ccc5[nH]ccc5c4)c3o2)cn1,"inconclusive: 79.4 µM [inhibitor, partial curve]",–
Cc1ccccc1NC(=O)C1CC(=O)N(c2n[nH]c3cc(Br)ccc23)C1 (stereo not drawn),–,inactive: 14.7%
O=C(c1cc2ccccc2[nH]1)N1CCC2(CCCCO2)CC1,"inconclusive: 44.7 µM [inhibitor, partial curve]",–
COc1ccc(CN2CCC3(CC2)CC(=O)c2ccc(Cl)cc2O3)cc1,–,inactive: -10.1%
COCCNC(=O)CCCN1C(=O)COc2ccc(C(=O)COc3ccc(C(C)(C)C)cc3)cc21,active: 14.1 µM,–
Cc1nc2c(c(-c3ccc(Cl)cc3)n1)CCN(C(=O)Nc1ccc(Cl)cc1)CC2,"inconclusive: 44.7 µM [inhibitor, partial curve]",–

Structure (SMILES),Potency,"activity change, negative = inhibition"
Cc1noc([C@@H]2C[C@H](NC(=O)Nc3cccc(F)c3)CN2C)n1,–,inactive: -3.58% [at 172 µM]
CCCN(CC1CCOC1)C(=O)NCC(C)C (stereo not drawn),–,inactive: 0.947%
c1ccc(CNc2nc(-c3ccccc3)no2)cc1,active: 14.1 µM,–
NC(=O)COC[C@@H]1CN(CC2CCCCC2)C[C@H]1c1ccncc1,–,inactive: -12.1%
O=C(c1cscn1)N1CCC2(CCCN(CCC3CCCCC3)C2=O)C1 (stereo not drawn),"inconclusive: 39.8 µM [inhibitor, partial curve]",–
O=c1c2nc(-c3ccsc3)ccc2ncn1-c1ccccc1,"inconclusive: 44.7 µM [inhibitor, partial curve]",–
COC(=O)C(NC(=O)N1CCc2nc3cc(-c4ccccc4)[nH]n3c(=O)c2C1)C(C)C (stereo not drawn),"inconclusive: 25.1 µM [inhibitor, partial curve]",–
COc1ccc(NC(=O)O[C@@H]2CO[C@H]3[C@@H]2OC[C@@H]3NC(=O)c2ccc(OC)cc2)cc1,"inconclusive: 112 µM [inhibitor, partial curve]",–
Cc1ccc(C(=O)NCCn2cccc2-c2nc(-c3ccc4c(c3)OCO4)no2)cn1,active: 12.6 µM,–
CC(C)c1nc2ccccc2n1CC(=O)N1CC[C@](C)(O)[C@@H](O)C1,–,inactive: 1.7%
COc1ccc(-c2cc3c(=O)n(CCNC(=O)c4ccccn4)ccn3n2)cc1,active: 7.94 µM,–
CN1c2cc(C(=O)Nc3ccccc3)ccc2C(=O)N2CCCCCC21 (stereo not drawn),active: 6.31 µM,–
COc1ccc(-c2cc(-c3cnc4[nH]ccc4c3)cn3cncc23)cc1,"inconclusive: 112 µM [inhibitor, single point]",–
COCCOC1CCN(C(=O)c2cccn2C)CC1,"inconclusive: 50.1 µM [inhibitor, partial curve]",–
Cc1cccc(-c2noc([C@@H]3Cc4nc[nH]c4CN3C(=O)NC3CCCCC3)n2)c1,active: 39.8 µM,–
COCCN1CCCCCC(O)c2cc(C(=O)NCCc3c[nH]c4ccccc34)ccc21 (stereo not drawn),"inconclusive: 56.2 µM [inhibitor, partial curve]",–
COCC(=O)N[C@H]1C[C@H]2C(=O)Nc3ccc(/C=C/c4ccc(OC)cc4)cc3C(=O)N2C1,"inconclusive: 39.8 µM [inhibitor, partial curve, poor fit]",–
Cc1[nH]cnc1CN1CCNc2cc(Nc3ccccc3)ncc2C1,active: 6.31 µM,–
CCOC(=O)C1(Cc2cccc(OC)c2)CCCN(Cc2cccc(C)n2)C1 (stereo not drawn),–,inactive: 10%
Cc1cccc(CCCNC(=O)C2CC(=O)N(Cc3cccnc3)C2)c1 (stereo not drawn),–,inactive: 8.2%
c1ccc([C@@H]2CN(C3CCOCC3)C[C@H]2COc2cccnc2)nc1,–,inactive: -6.05%
O=C(c1ccc(Cl)cc1)N1CCC2(CC1)OCC(C(=O)N1CCCC1)N2C(=O)c1ccccc1 (stereo not drawn),–,inactive: -7.57%
C#CCNC(=O)c1nc(-c2ccc(Cl)cc2)c2cnccn12,"inconclusive: 56.2 µM [inhibitor, partial curve]",–
COc1ccc(-c2cc(-c3ccc4c(c3)CNC4=O)cn3cncc23)cc1,"inconclusive: 63.1 µM [inhibitor, full curve]",–
